Measured values: the supplement of paper PMC9446081
The campaign covered roughly 39,000 compounds. About 220 (0.56%) showed activity. This is one part of the list.

test system: Escherichia coli K-12 BW25113; test: relative growth (OD600 normalised to plate interquartile mean) (fraction); higher = less growth inhibition, active = 0.2 or less; details: 50 µM; LB; incubation time: overnight (16-24 h)
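Also: static incubation at 37 °C against the wild-type strain, values averaged over two biological replicates.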

| Structure (SMILES) | relative growth |
| --- | --- |
| CC(=O)OC1CC(O)C(C)(C)C2CC(OC(C)=O)C3(C)C(CCC4(C)C(c5ccoc5)OC(=O)C5OC543)C12C (configuration not stated) | inactive: 1.06 |
| CC(C)NC(=O)N(C)C[C@H]1Oc2c(NC(=O)C3CCOCC3)cccc2C(=O)N([C@H](C)CO)C[C@@H]1C | inactive: 0.965 |
| C[C@H]1CN([C@@H](C)CO)C(=O)c2cc(NC(=O)C3CCCCC3)ccc2O[C@H]1CN(C)Cc1ccc(-c2ccccc2)cc1 | inactive: 1.04 |
| Cn1cnc(S(=O)(=O)N2C[C@H](O)COC[C@H]3O[C@H](CC(=O)N4CCN(c5ccccc5)CC4)CC[C@@H]32)c1 | inactive: 0.986 |
| CNCc1cnc(NC)nc1 | inactive: 1.02 |
| C[C@@H]1CCCCO[C@H](CN(C)C(=O)Nc2cccc3ccccc23)[C@H](C)CN([C@@H](C)CO)C(=O)c2cc(NS(=O)(=O)c3ccc(F)cc3)ccc2O1 | inactive: 0.95 |
| CN1CCN(C(=O)C[C@H]2CC[C@H](NC(=O)c3ccc4c(c3)OCO4)[C@H](CO)O2)CC1 | inactive: 1 |
| C[C@H]1CN([C@@H](C)CO)C(=O)c2cccc(NC(=O)c3nc4ccccc4s3)c2O[C@H]1CN(C)S(C)(=O)=O | inactive: 1.02 |
| Cc1ccc(S(=O)(=O)N(C)C[C@H]2OCCCC[C@@H](C)Oc3ccc(NC(=O)Nc4ccccc4)cc3C(=O)N([C@H](C)CO)C[C@@H]2C)cc1 | inactive: 1.03 |
| C[C@@H]1CCCCO[C@@H](CN(C)Cc2ccc(C(=O)Nc3ccccc3N)cc2)[C@@H](C)CN([C@H](C)CO)C(=O)c2cc(NC(=O)CCC(F)(F)F)ccc2O1 | inactive: 0.999 |
| O=C(C[C@@H]1CC[C@H]2[C@@H](COC[C@H](O)CN2C(=O)c2cnccn2)O1)N1CCN(c2ccccc2)CC1 | inactive: 0.98 |
| C[C@H](CO)N1C[C@H](C)[C@@H](CN(C)CC2CC2)Oc2ccc(NS(=O)(=O)c3cn(C)cn3)cc2CC1=O | inactive: 0.972 |
| COc1ccc(NC(=O)Nc2ccc3c(c2)[C@H]2C[C@@H](CC(=O)N4CCN(C)CC4)O[C@H](CO)[C@H]2O3)cc1 | inactive: 1 |
| CN(C)C(=O)C[C@@H]1CC[C@H]2[C@H](COc3ccc(NS(=O)(=O)c4cccc(F)c4)cc3C(=O)N2C)O1 | inactive: 0.987 |
| CC(=O)N[C@@H]1CC[C@H](CCNC(=O)C2CC2)O[C@@H]1CO | inactive: 0.964 |
| C[C@@H]1CCCCO[C@H](CN(C)C(=O)Nc2cccc3ccccc23)[C@@H](C)CN([C@@H](C)CO)C(=O)c2cc(NC(=O)C3CCCCC3)ccc2O1 | inactive: 1.01 |
| C[C@H](CO)N1C[C@H](C)[C@@H](CN(C)Cc2ccc(Oc3ccccc3)cc2)Oc2ccc(NC(=O)Nc3ccc(C(F)(F)F)cc3)cc2C1=O | inactive: 0.987 |
| NCCn1cccc1 | inactive: 1.02 |
| Cc1noc(C)c1S(=O)(=O)Nc1ccc2c(c1)CC(=O)N([C@@H](C)CO)C[C@H](C)[C@H](CN(C)Cc1ccccc1)O2 | inactive: 0.967 |

| Structure (SMILES) | relative growth |
| --- | --- |
| C[C@@H]1O[C@@H](O[C@H]2[C@H](O)[C@@H](O)[C@H](OC(=O)[C@]34CCC(C)(C)C[C@H]3C3=CC[C@H]5[C@@]6(C)CC[C@H](O[C@@H]7O[C@H](C(=O)O)[C@@H](O)[C@H](O)[C@H]7O)C(C)(C)[C@@H]6CC[C@@]5(C)[C@]3(C)CC4)O[C@@H]2CO)[C@H](O)[C@H](O)[C@H]1O | inactive: 1 |
| COc1ccc(CNC(=O)C[C@@H]2C[C@H]3c4cc(NS(=O)(=O)c5ccc(F)cc5)ccc4O[C@H]3[C@H](CO)O2)cc1 | inactive: 1.01 |
| COc1ccc(CCc2nc3cc(-c4c(C)noc4C)ccc3n2C[C@H](C)N2CCOCC2)cc1Cl | inactive: 1.01 |
| Cc1noc(C)c1NC(=O)N(C)C[C@H]1Oc2ccc(NC(=O)c3ccncc3)cc2C(=O)N([C@H](C)CO)C[C@H]1C | inactive: 0.983 |
| Cc1ccc(S(=O)(=O)Nc2ccc3c(c2)C(=O)N([C@@H](C)CO)C[C@H](C)[C@H](CN(C)C(=O)NC(C)C)O3)cc1 | inactive: 1 |
| Nc1ccn([C@@H]2O[C@H](CO)[C@H](O)[C@@H]2O)c(=O)n1 | inactive: 1.01 |
| Cc1ccc(S(=O)(=O)N(C)C[C@@H]2Oc3ccc(NS(C)(=O)=O)cc3C(=O)N([C@@H](C)CO)C[C@@H]2C)cc1 | inactive: 1.01 |
| CC(C)N1C(=O)c2cccc(NC(=O)c3ccncc3)c2O[C@H](CN(C)Cc2ccc(Cl)cc2)[C@H]1C | inactive: 1.02 |
| C[C@@H]1CN([C@@H](C)CO)C(=O)Cc2cc(NS(=O)(=O)c3ccccc3)ccc2O[C@@H]1CN(C)S(=O)(=O)c1ccc(F)cc1 | inactive: 0.878 |
| C[C@@H]1CN([C@H](C)CO)C(=O)c2cccc(NC(=O)C3CCOCC3)c2O[C@H]1CN(C)S(=O)(=O)c1cccs1 | inactive: 0.995 |
| C[C@@H]1CCCCO[C@@H](CN(C)C(=O)C2CCCCC2)[C@H](C)CN([C@H](C)CO)C(=O)c2cc(NS(=O)(=O)c3ccccc3)ccc2O1 | inactive: 0.989 |
| C[C@@H]1CCCCO[C@@H](CN(C)Cc2ccc(C(=O)O)cc2)[C@@H](C)CN([C@H](C)CO)C(=O)c2cc(NC(=O)CCC(F)(F)F)ccc2O1 | inactive: 1 |
| C[C@@H](O)C#Cc1ccc2c(c1)O[C@@H](CN(C)C)[C@@H](C)CN([C@@H](C)CO)S2(=O)=O | inactive: 0.99 |
| C[C@@H]1CN([C@H](C)CO)C(=O)Cc2cc(NC(=O)CCC(F)(F)F)ccc2O[C@@H]1CN(C)Cc1ccc(C(=O)Nc2ccccc2N)cc1 | inactive: 1.01 |
| C[C@@H]1CN([C@@H](C)CO)C(=O)CCCn2cc(nn2)CO[C@@H]1CN(C)Cc1ccc2c(c1)OCCN2C | inactive: 0.995 |
| CO[C@H]1CN(C)C(=O)c2cc(NC(=O)Nc3ccccc3F)ccc2OC[C@H](C)N(Cc2ccccc2C(=O)O)C[C@@H]1C | inactive: 0.934 |
| O=C([O-])c1ccccc1-c1c2cc(I)c(=O)c(I)c-2oc2c(I)c([O-])c(I)cc12.[Na+].[Na+] | inactive: 0.861 |
| O=C(NCCN1CCCC1)[C@H]1[C@H](CO)[C@H]2Cn3c(cccc3=O)[C@H]2N1C(=O)c1ccccc1 | inactive: 0.995 |
